From ChEMBL document CHEMBL4888484, “Replenishing the malaria drug discovery pipeline: Screening and hit evaluation of the MMV Hit Generation Library 1 (HGL1) against asexual blood stage Plasmodium falciparum ,using a nano luciferase reporter read-out” (2022)
About 540 (0.36%) of roughly 150,000 compounds showed an effect of 50% or more. Some of the results follow.

Tested on: Plasmodium falciparum
Assay: Primary screen in NF54 nanoGlo assay, in single point, at 2uM, 72h; a lower Z score goes with more inhibition
Format: functional, Erythrocyte
Conditions: timepoint 72 hour

Compound | % Inhibition | Z score
C#CC(CC)(CC)NS(=O)(=O)c1ccc(OC)c(OC)c1 | 2% | -0.49
CC(O)CN1CCN(C(C)C(=O)NCCC2=CCCCC2)CC1C (stereo unspecified) | -8% | 0.92
Cc1cc(NC(=O)c2ccncc2)cc2c1OCCO2 | 37% | -4.76
Cc1cccn2c(NC(=O)[C@H](C3CC3)N3CCCC3)cnc12 | -24% | 2.61
CCn1nc(C)c(-c2ccnc(NCCc3nc4ccccc4n3CC)n2)c1C | -17% | 1.51
Cc1cccc(CN2CCN(C(=O)NCC3CCCCC3)[C@@H](C)C2=O)c1 | -7% | 0.66
O=C(c1onc2c1CCCC2)N1CCC[C@H]1c1ccn[nH]1 | -10% | 1.89
Cc1cc2c(cc1C)N(CC(=O)Nc1ccc(C(F)(F)F)cc1)C(=O)CC(c1cccs1)=N2 | 46% | -5.17
Cc1cc(Cl)ccc1NC(=O)N1CCN(c2ncccc2-c2nnc(C(C)C)o2)CC1 | -4% | 0.42
O=C(Nc1nc2c(Cl)c(Cl)ccc2s1)[C@@H]1CC=CCC1 | -10% | 1.55
Cc1noc(C)c1CC(=O)N1CCC[C@H](Oc2ccncn2)C1 | 0% | -0.07
COCCNC(=O)C1Cc2ccccc2N2CCOCC12 (stereo unspecified) | -3% | 0.51
COc1cc([C@H]2CC(=O)Nc3c2c(=O)[nH]n3C2CCCC2)ccc1O | 33% | -3.76
CC(=O)N[C@H]1C[C@@H](c2ccccc2-c2ccccc2)O[C@@H](C(C)C)C1 | 11% | -1.51
O=C(c1cc2ccccc2[nH]1)N1C[C@@H]2CC[C@H]1CN(Cc1ccccn1)C2 | -4% | 0.66
CCOc1ccc(CN2C(=O)c3cc(-c4ccccc4)nn3C[C@@]2(C)C(=O)NCc2ccccc2OC)cc1 | -1% | 0.08
CCCCn1nc(C(C)C)nc1CCc1ccncc1 | -13% | 1.23
Cc1cnc(-c2noc(C[C@H]3CCc4ccccc43)n2)nc1 | -1% | 0.08
O=C(N[C@H]1CCCCNC1=O)c1coc(COc2cccc(C(F)(F)F)c2)n1 | 7% | -1.04
Cc1nc(-c2cccc(C(=O)NCCCC[C@H]3CCCO3)c2)sc1C | -12% | 1.32
CC1(C)C(c2ccccc2)=NO[C@@H]1N1CCOCC1 | 44% | -1.59
Cc1nc(N)sc1-c1ccn(-c2cccc(F)c2)n1 | -5% | 0.66
O=C1CC2CCC(CN1)N2C(=O)c1ccoc1Cl (stereo unspecified) | -1% | 0.15
Cc1c(O)cccc1C(=O)N1CCOC[C@@H](CN(C)C)C1 | -15% | 1.98
CCn1c(CN2CCNCC2)nc2cc(S(=O)(=O)N3CCCCC3)ccc21 | -5% | 0.5
O=C(Nc1ccc(-c2nc3ncccc3o2)cc1)c1ccc(OCc2ccccc2)cc1 | -23% | 3.74
O=C(CCC(F)(F)F)Nc1ccc2sncc2c1 | -13% | 1.97

Compound | % Inhibition | Z score
Cc1nc(NC2CC2)sc1C(=O)NCc1ccco1 | 3% | -0.31
O=c1[nH]c2nc(N3CCN(c4ncccn4)CC3)ncc2c(=O)n1-c1ccc2c(c1)OCO2 | -4% | 0.57
COc1cc(NS(C)(=O)=O)c(OC)cc1Cl | -13% | 2.43
CCCN(Cc1[nH]cc(C)c(=O)c1C)[C@H]1CCCC[C@@H]1O | -6% | 0.99
CCc1ccc(CN(C)[C@H]2CCCc3c2cnn3C)o1 | -1% | 0.15
O=C(NCc1ccccc1)N[C@H]1CO[C@H]2[C@@H]1OC[C@@H]2n1cc(-c2ccccn2)nn1 | 15% | -1.77
CN(C)c1cccc([C@@H]2CCCN2C(=O)Nc2ccc3c(c2)N(C)CCO3)c1 | -14% | 1.81
CCOc1cccc(CCC(=O)N2CCN(C(=O)c3cc(C)[nH]n3)C[C@H]2C)c1 | -7% | 1.08
COc1ccc(-n2ccnc(NC(=O)c3ccncc3)c2=O)cc1OC | -10% | 1.34
CNC(=O)C1C2CCC(C2)N1S(=O)(=O)c1ccc2c(c1)OCCO2 (stereo unspecified) | -3% | 0.5
CC(C)(C(=O)O)[C@H]1CCCN(C(=O)C2CCC2)C1 | -13% | 1.19
O=C(C1CCN(S(=O)(=O)c2ccc(-c3noc(-c4ccc(Cl)cc4Cl)n3)cc2)CC1)N1CCCC1 | -1% | 0.15
Cc1nc(-n2ccc3ccccc32)sc1C(=O)O | 9% | -1.52
CC(C)c1nc2ccc(NC(=O)N[C@H]3CCS(=O)(=O)C3)cc2s1 | 7% | -0.87
Cc1nccc(O)c1OCC(=O)Nc1ccncc1 | -2% | 0.2
O=C(NC1CCCN(c2cccc(F)c2)C1)C1CCS(=O)(=O)C1 (stereo unspecified) | -1% | 0.11
S=c1cc(-c2ccccc2)n(CCCc2ccccc2)c2c1CCCC2 | -6% | 0.85
CCCn1nccc1NC(=O)N[C@@]1(C)CCS(=O)(=O)C1 | -11% | 1.61
O=C(NCc1ccccc1)N1CCC[C@@](F)(C(=O)NCc2cccnc2)C1 | -9% | 0.77
CC(C)(C)n1cc(CS(=O)(=O)CC2CCC3CC3C2)cn1 (stereo unspecified) | -6% | 1.05
Cc1cc(CS(=O)(=O)NCCc2c(C)noc2C)no1 | -3% | 0.23
C[C@@H]1CN(Cc2ccc(OC(F)F)c(Cl)c2)CC(C(N)=O)O1 (stereo partly specified) | -1% | 0.11
CCC(=O)N1CC[C@H]2CC(=O)Nc3ccc(-c4cnn(C)c4)cc3OCC[C@H]2C1 | -1% | 0.18
O=C1CN(C(=O)Cn2nnc3ccccc3c2=O)c2ccccc2N1 | -13% | 2.5
CCN(C(=O)c1cccc(-c2nc(C)nc3ccccc23)c1)[C@H]1COC[C@@H]1O | 1% | -0.09
Cc1c(Cc2ccccc2)c(=O)n2nc(-c3ccccc3)nc2n1CC(=O)NC[C@H]1CCCO1 | 19% | -2.35
